The campaign covered roughly 48,000 compounds. About 450 (0.94%) were called active. Not shown: some 19% with an inconclusive outcome. Calls follow the shape of the dose curve; as a rule, active = well fitted inhibition curve with a large enough effect; inconclusive = small, poorly fitted or top-dose-only effect; inactive = no such curve, though single readings can be large or run the other way. The list shows a part of the results.
Assay: Primary qHTS for Identification of Small Molecule Inhibitors of Huntingtin Promoter Activity; also: nearly all actives have a fitted effect of over 50% in size
Conditions: HEK293 HTT promoter firefly luciferase reporter (activity 0% = vehicle and -100% = no light), 24 h; series mostly up to 57.5 µM; activity change, negative = inhibition: at the top concentration
In short: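 Firefly luciferase signal from promoter-reporter HEK293 cells was scaled between vehicle (0%) and zero RLU (-100%). Compounds were tested at final concentrations of up to 57.5 uM over 24 h at 37 degrees C. PTC124 at 50 uM final served as control inhibitor.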
Potency is read from the fitted curve at half-maximal effect.

Row | SMILES | activity change, negative = inhibition | Potency
1 | COC(=O)Cn1c(=O)c2cccn2c2cccnc21 | inactive: -15.8% | –
2 | Cc1cc(C(=O)Nc2ccc(C(C)C)cc2)c2c(C)nn(-c3ccccc3)c2n1 | inactive: -0.459% | –
3 | COc1cccc(CNC(=O)CSc2c3c(nc4cc(Cl)ccc24)CCCC3)c1 | inactive: -14.2% | –
4 | CN(C)CCCN(C(=O)c1ccc2c(c1)OCCO2)c1nc2ccccc2s1 | inactive: -31.8% | –
5 | COc1ccc(Cn2c(=O)c3oc4ccccc4c3n(Cc3cccc(C)c3)c2=O)cc1 | inactive: -11.8% | –
6 | CCOc1ccccc1NC(=O)Cn1cc(C(=O)c2ccc(Cl)cc2)c(=O)c2ccc(C)nc21 | inactive: -1.03% | –
7 | Cc1cccc2c(=O)cc(CSc3ccccc3NC(=O)c3cccc(F)c3)[nH]c12 | inactive: 3.19% | –
8 | COc1ccccc1CNc1ccc(-c2nc(-c3ccco3)no2)cc1[N+](=O)[O-] | inactive: -5.64% | –
9 | Cc1cc2nn(-c3ccc(F)cc3)nc2cc1NC(=O)c1cccc2ccccc12 | inactive: 5.3% | –
10 | O=C(Nc1nnc(S(=O)(=O)N2CCOCC2)s1)c1ccccc1Cl | inactive: -13.3% | –
11 | Nc1nc(N)c2nc(-c3ccccc3)c(N)nc2n1 | inactive: 25.6% | –
12 | CC(=O)Nc1ccc(NC(=O)C2CCCN2S(=O)(=O)c2ccc3c(c2)CCCC(=O)N3)cc1 (stereo not given) | inactive: -7.05% | –
13 | COc1ccc(OC)c(CCNC(=O)c2cc3c(=O)oc4ccc(C)cc4c3s2)c1 | inactive: -6.19% | –
14 | O=C(Nc1ccc2nc(SCc3ccccc3)sc2c1)c1ccccc1F | inactive: -26.3% | –
15 | Cc1ccc(OCC(=O)Nc2ccc3c(c2)nc(CCNC(=O)c2ccco2)n3C)cc1 | inactive: -17.2% | –
16 | COc1ccc(N2CCN(C(=O)CN3C(=O)CSc4c3c(C)nn4-c3ccccc3)CC2)cc1 | inactive: -15.9% | –
17 | O=C(Nc1ccc2oc(-c3cccnc3)nc2c1)c1ccc(-c2ccc(OC(F)(F)F)cc2)o1 | inactive: -21.2% | –
18 | Cc1ccccc1N1CC(C(=O)Nc2ccc(Br)cc2)CC1=O (stereo not given) | inactive: -20.2% | –
19 | COCCCNc1nc2cc(OC)c(OC)cc2c2nc(-c3ccccc3)nn12 | inactive: -6.14% | –
20 | CCn1c(=O)c(=O)n(CC)c2cc(N3CCCCC3)c(NC(=O)c3ccc(Cl)cc3)cc21 | inactive: 2.87% | –
21 | Cc1nnc(N2CCCC(C(=O)NCc3ccccc3F)C2)c2nn(-c3ccc(Cl)cc3)c(C)c12 (stereo not given) | inactive: -0.0098% | –
22 | COc1ccc(C(=O)NCc2nnc(SCC(=O)Nc3ccccc3)n2-c2ccccc2)cc1 | inactive: -1.84% | –
23 | COc1cc(Cl)c(C)cc1NC(=O)c1ccc2c(SCC(=O)O)c3c(nc2c1)CCCC3 | inactive: 9.35% | –
24 | O=C(CSc1n[nH]c(-c2ccccc2)n1)NCCCc1ccccc1 | inactive: -24.4% | –
25 | CCN(CC)CCNC(=O)c1ccc2c(c1)NC(=O)C(CS(=O)(=O)Cc1cccc(Br)c1)N2 (stereo not given) | inactive: -7.26% | –
26 | COc1ccc(-c2nc3cc(C(C)C)ccc3o2)cc1NC(=O)COc1ccc(C)cc1C | inactive: 1.51% | –
27 | O=C(Cn1c(=O)c2ccccc2n(CC(=O)Nc2ccc(F)cc2F)c1=O)NCCc1ccccc1 | inactive: -7.17% | –
28 | Cc1ccc(C)c(Nc2ncnc3onc(C)c23)c1 | inactive: -25.5% | –

Row | SMILES | activity change, negative = inhibition | Potency
29 | COc1ccc(NC(=O)CCSc2nc(-c3ccco3)cc(C(F)(F)F)n2)cc1 | inactive: -17.5% | –
30 | COc1ccc(NC(=O)CSc2ncccc2C(=O)O)cc1OC | inactive: -3.92% | –
31 | CCN(C(=O)c1cc2c(=O)oc3ccc(C)cc3c2s1)c1cc(OC)ccc1OC | inactive: -33.7% | –
32 | CCC1CCCCN1CCCNC(=O)c1ccc2c(c1)N(Cc1ccccc1)C(=O)c1ccccc1S2(=O)=O (stereo not given) | inactive: -22.3% | –
33 | CCn1nc(C)c2c(-c3ccccc3)cc(=O)n(C(C)C(=O)NCc3cccc(OC)c3)c21 (stereo not given) | inactive: -9.3% | –
34 | CCc1ccc(OCCCn2c(-c3ccc(Cl)cc3)nc3ccccc3c2=O)cc1 | inactive: -20.6% | –
35 | Cc1ccc(-c2nc3scc(CCNS(=O)(=O)c4ccc(F)c(C)c4)n3n2)cc1 | inactive: -26.1% | –
36 | CCN(CC)c1ccc(NC(=O)c2cc(C)nc3c2c(C)nn3-c2cccc(F)c2)c(C)c1 | inactive: -9.11% | –
37 | Cc1ccc(Cl)cc1NC(=O)CSc1ccc(C(=O)O)cn1 | inactive: -5.74% | –
38 | c1ccc(-c2nnc(CN3CCN(c4ccccn4)CC3)o2)cc1 | inactive: 4.14% | –
39 | Cc1ccc(OCC(=O)OCc2cc(=O)n3nc(C4CCCCC4)sc3n2)cc1C | inactive: -26.6% | –
40 | O=C(c1[nH]c2ccccc2c1Sc1ccc(Cl)cc1)N1CCCCC1 | inactive: -29.3% | –
41 | O=C1CC(c2ccccc2)Sc2nc(-c3ccc(F)cc3)nn21 (stereo not given) | inactive: 0.177% | –
42 | CCOc1ccccc1CNCc1c(C(=O)O)c(C)n(Cc2ccc(Cl)cc2)c1C | inactive: 14.5% | –
43 | CCC1CN(C(=O)N2CCC(C(=O)Nc3cc(C)ccc3C)CC2)c2ccccc2O1 (stereo not given) | inactive: -10.6% | –
44 | CCCCOc1ccc(C(=O)CCN2CCCCC2)cc1 | inactive: 10.3% | –
45 | COc1cc(C2c3c(oc4ccccc4c3=O)C(=O)N2c2nncs2)cc(OC)c1OC (stereo not given) | inactive: -6.17% | –
46 | Cc1cccc(-c2cc(NC(=O)C(C)(C)C)n(-c3ccccc3)n2)c1 | inactive: -0.297% | –
47 | O=C(COc1ccc(F)cc1)Nc1ccccc1C(=O)OCc1cc(=O)n2nc(C3CC3)sc2n1 | inactive: -7.06% | –
48 | CCOc1ccc(-c2cn3c(n2)sc2cc(C(=O)NCCCc4ccccc4)ccc23)cc1 | inactive: -33.2% | –
49 | Cc1nc2nc(SCc3ccc(F)cc3Cl)nn2c(C)c1Cc1ccccc1 | inactive: 0.944% | –
50 | O=C(CS(=O)(=O)c1cccc2nsnc12)NCc1ccc(Cl)cc1 | inactive: -4.36% | –
51 | COc1ccc(-c2c(C)nn3c4c(cnc23)C(=O)CC(c2ccccc2)C4)cc1 (stereo not given) | inactive: -8.95% | –
52 | CC(NC(=O)c1ccc(Nc2nc3ccccc3n3nnnc23)cc1)c1ccccc1 (stereo not given) | inactive: 16.4% | –
53 | COc1cccc(N2CC(NC(=O)c3ccc4c(c3)OCO4)CC2=O)c1 (stereo not given) | inactive: -10.4% | –
54 | Cc1nc2nc(-c3ccc(Cl)cc3Cl)nn2c(C)c1CCC(=O)Nc1ccc(F)cc1 | – | active: 7.94 µM
55 | CCCCN(C)CCCNC(=O)CN1C(=O)COc2ccc(S(=O)(=O)N3CCOCC3)cc21 | inactive: -12.8% | –

— PubChem BioAssay AID1508623 (National Center for Advancing Translational Sciences (NCATS), 2021)
